Experimental data: the RNAGym collection of RNA variant scans (doi:10.1093/nar/gkz1192)
Read counts are not given, so values of variants with three or more changes are uncertain.

B1: CPEB3 Ribozyme (parent)
chain: UAACAGGGGGCCACAGCAGAAGCGUUCACGUCGCAGCCCCUGUCAGAUUCUGGUGAAUCUGCGAAUUCUGCUGUAUAUCUC

Variants of: B1
Test: self-cleavage, relative activity (ratio to wild type); higher = more cleavage; in vitro, sequencing
Method in brief: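 Relative activity compares each variant's cleaved/total read fraction with that of the unmutated ribozyme. To get these fractions, barcoded CPEB3 ribozyme libraries from rounds of error-prone PCR were transcribed with T7 RNA polymerase for 5 hours at 37°C and then given 15 min of DNase I treatment before EDTA was added. The RNAs were reverse transcribed with template switching and sequenced on Illumina, and DNA sequencing linked barcodes to variants. A minimum of 5 reads applied, and three batches were averaged.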

Variant	self-cleavage
UAACAGGGGGCCACAGCAGAAGCGUUCACGUCGCGGCCCCUGUCAGAUACUGGUGAAUCUACGUAUUCUGCUGUAUAUCUC	0.31
UAACAGGGGGCCACAGCAGAAGCGUUCACGUCGCGGCCCCUGCCAGAUUCUGGUGGAUCUGCGAAUUCUGCUGUAUAUCUC	1.06
UAACAGGGGGCCACAGCAGAAGCGUUCACGUCGCGGCCCCUGCCAGAUUCUGGUGAAUCUGCGAAUUCCGCUGUAAAUCAC	0.9
UAACAGGGGGCCACAGCAGAAGCGUUCACGUCGCGGCCCCCGCCAGAUUCUGGUGAAUCUGCGAAUUCUGCUGUAUAUCUC	1.05
UAACAGGGGGCCACAGCAGAAGCGUUCACGUCGCGGCCCCCGUCAGAUCCUAGUGAAUCUGUGAAUUCUGCUGAAUAUCUC	0.23
UAACAGGGGGCCACAGCAGAAGCGUUCACGUCGCGGCCCCUGUCAGAUACUGGUGAAUCUGCGAAUUCUGCUAUAUAUCUC	1.27
UAACAGGGGGCCACAGCAGAAGCGUUCACGUCGCGGCCCCUGCCAGAUUCUGGUGAAUCUGCGAAUUCUCCUGUAUAUCUC	0.2
UAACAGGGGGCCACAGCAGAAGCGUUCACGUCGCGGCCCCUGCCAGAUUCUGGUGGAUCUGCGAUUUCUGCUGUAUAUCUC	0.25
UAACAGGGGGCCACAGCAGAAGCGUUCACGUCGCGGCCCCUGCCAGAUUCUGGCGAAUCUGCGUAUUCUGCUGUAUAUCUC	0.5
UAACAGGGGGCCACAGCAGAAGCGUUCACGUCGCGGCCCCAGUCAGAUCCUGGUGAAUCUGCGAAUUCUGCUGUAUAUCUC	0.36
UAACAGGGGGCCACAGCAGAAGCGUUCACGUCGCGGCCCCUGACAGAUUCUGGCGAAUCUGCGUAUCCUGCUGUAUAUCUC	0.2
UAACAGGGGGCCACAGCAGAAGCGUUCACGUCGCGGCCCCUGACAGAUUCUGGUGAAUCUGCGAAUUCUGCUGUAUAUCCC	1.28
UAACAGGGGGCCACAGCAGAAGCGUUCACGUCGCGGCCCCUGACAGAUUCUGGUGAAUCUGCGAAUUCUGCCGUAUAUCUC	1.24
UAACAGGGGGCCACAGCAGAAGCGUUCACGUCGCGGCCCCAGUCAGAUUCGGGAGAAUCUGCGAAUUCUGCUGUAUAUCUC	0.49
UAACAGGGGGCCACAGCAGAAGCGUUCACGUCGCGGCCCCUGACAGAUUCUGGUGAAUCUGCGAAUUCAGCUGUAUAUCUC	0.69
UAACAGGGGGCCACAGCAGAAGCGUUCACGUCGCGGCCCCUGUCAGAUUCUGGUGAAUCUUCGAAUUCUGCUGUAUUUCUC	1.16
UAACAGGGGGCCACAGCAGAAGCGUUCACGUCGCGGCCCCUGUCAGACUCUGGUGGAUCCGCAAAUUCUGCUGAAUAUCUC	0.49
UAACAGGGGGCCACAGCAGAAGCGUUCACGUCGCGGCCCCUGCCAGAUUCUGGCGAAUCAGCGAAUUCUGCUGUACAUCUC	0.44
UAACAGGGGGCCACAGCAGAAGCGUUCACGUCGCGGCCCCAGUCAGAUCCUGGUGUAUCUGCGAAUACUGCUGUAUAUCUC	0.1
UAACAGGGGGCCACAGCAGAAGCGUUCACGUCGCGGCCCCCGUCAGACUCUGGUGGAUCCGCGAAUUCUGCUGUAUUUCUC	0.3
UAACAGGGGGCCACAGCAGAAGCGUUCACGUCGCGGCCCCUGAUAGAUACUGGUGAAUCUGCGAAUUCAGCUGUAUAUCUC	0.24
UAACAGGGGGCCACAGCAGAAGCGUUCACGUCGCGGCCCCCGUCAUAUUCUGGCGAAUCUGCGAAUCCUACUGUAUAUCUC	0.13
UAACAGGGGGCCACAGCAGAAGCGUUCACGUCGCGGCCCCCGUCAGAUUCUGGUGAAUCUACGAAUUCUGCUGUAUAUCUC	1.17

Variant	self-cleavage
UAACAGGGGGCCACAGCAGAAGCGUUCACGUCGCGGCCCCUGUCAGAUCCUGGUGGAUCUGUGAAUUCUGCUGUAUAUCUC	0.13
UAACAGGGGGCCACAGCAGAAGCGUUCACGUCGCGGCCCCAGUCAGUCUCUGGUGGAUCUGCGAAUUCUGCUGUAUAUCUC	0.07
UAACAGGGGGCCACAGCAGAAGCGUUCACGUCGCGGCCCCUGUCAGACUCUGGUGAGUCAGCGAACUCUGCUGUGUACCUC	0.37
UAACAGGGGGCCACAGCAGAAGCGUUCACGUCGCGGCCCCUGACAGAUUCUGGUGAAUCUGCGAAUCCUGCUGUAUAUCUC	0.31
UAACAGGGGGCCACAGCAGAAGCGUUCACGUCGCGGCCCCUGUCAGAUUCUGGUUGAUCUGCGAAUUCUGCUGUAUAUCUC	1.27
UAACAGGGGGCCACAGCAGAAGCGUUCACGUCGCGGCCCCGGUCAGAUUCUGGUGAAUCUGCGGAUUCUGCCGUAUAUCUC	0.38
UAACAGGGGGCCACAGCAGAAGCGUUCACGUCGCGGCCCCUGUCAGACUCUGGUGAAUCUGCGAAUUCCGCUGUAUAUCUC	0.73
UAACAGGGGGCCACAGCAGAAGCGUUCACGUCGCGGCCCCAGUCAGAUUCUGGUGAAUCUGCGAAUUCUGCUGUAUACCUC	0.34
UAACAGGGGGCCACAGCAGAAGCGUUCACGUCGCGGCCCCCGUCAGAUUCUAGAGAAUCUGCAAAUCCUGCUGUAUAUCUC	0.67
UAACAGGGGGCCACAGCAGAAGCGUUCACGUCGCGGCCCCUGUCAGAUACUGGUGAAUCUGCGAAUUCUGCAGUAUAUCUC	0.92
UAACAGGGGGCCACAGCAGAAGCGUUCACGUCGCGGCCCCUGUCAGAUACAGGUGGAUCUGCGAAUUCUGCUGUAUAUCUC	1.05
UAACAGGGGGCCACAGCAGAAGCGUUCACGUCGCGGCCCCUGACAGAUUCUGGGGAAUCUGCGAAUUCUGCUGUAUACCAC	1.28
UAACAGGGGGCCACAGCAGAAGCGUUCACGUCGCGGCCCCUGACAGAUUCUGGUGAAUCUGCGAAUUCUGCUGUAUAGCUC	1.29
UAACAGGGGGCCACAGCAGAAGCGUUCACGUCGCGGCCCCCGUCGGAUUCUGGUGAAUCUGCGAAUUCUGCCGUAUAUCUC	1.22
UAACAGGGGGCCACAGCAGAAGCGUUCACGUCGCGGCCCCUGCCAGAUUCUGGUGAAUCUGCGAAUCCCGCUGCAUAUCUC	0.15
UAACAGGGGGCCACAGCAGAAGCGUUCACGUCGCGGCCCCCGUCAGAUUCUGGUGAAUCUGCGAAUUCCGCUGUAUAUCUC	1.06
UAACAGGGGGCCACAGCAGAAGCGUUCACGUCGCGGCCCCUGUCAGACUCUGGUGAGUCUGCGAAUUCUGCUGUAUAUCUC	1.25
UAACAGGGGGCCACAGCAGAAGCGUUCACGUCGCGGCCCCCGUCAGAUUCCGGUGGAUCUGCGAAUUCUGCUGCAUGUCUC	1.45
UAACAGGGGGCCACAGCAGAAGCGUUCACGUCGCGGCCCCUGCCUGAUUCUGGUGAAUCUGCGAAUUCUGCUGUAUAUCUC	0.58
UAACAGGGGGCCACAGCAGAAGCGUUCACGUCGCGGCCCCUGUCAGACUCUGGUGAAUCUGCGAAUUCUGCCAUACAUCCC	1.24
UAACAGGGGGCCACAGCAGAAGCGUUCACGUCGCGGCCCCUGUCAGACUCUGGUGAAUCCGCGGAUUCUGCUGCAUAUCAC	0.64
UAACAGGGGGCCACAGCAGAAGCGUUCACGUCGCGGCCCCUGCCAGAUUCUGGUGGAUCUGUGAAUUCUGCUGUAUAUCUC	0.2
UAACAGGGGGCCACAGCAGAAGCGUUCACGUCGCGGCCCCCGUCAGAUUCUGGUGAAUCUGCGAACUCUGCUGUAUACCUC	1.12

Variant	self-cleavage
UAACAGGGGGCCACAGCAGAAGCGUUCACGUCGCGGCCCCUGGCAGACUCUGGUGAAUCUGCGAAUUCCGCUGUAUAUCUC	0.07
UAACAGGGGGCCACAGCAGAAGCGUUCACGUCGCGGCCCCUGUCAGAUUCUGGUGAAUCUUCGAAUUCUGCUGUACAUCUC	0.93
UAACAGGGGGCCACAGCAGAAGCGUUCACGUCGCGGCCCCUGACAGAUUCUGGUGUAUCUGCGAAUUCUGCUGUAUAUCUC	1.41
UAACAGGGGGCCACAGCAGAAGCGUUCACGUCGCGGCCCCUGCCAGAUUCUGGUGAGUCUGCGAAUUCUGCUGUAUAUCUC	1.24
UAACAGGGGGCCACAGCAGAAGCGUUCACGUCGCGGCCCCAGUCAGAUUCUGGCGUAUCUGCGAAUUCUGCUGUAUAUCUC	0.1
UAACAGGGGGCCACAGCAGAAGCGUUCACGUCGCGGCCCCUGACAGACUCUGGUGAAUCUGCGUAUUCUGCUGUAUAUCUC	0.99
UAACAGGGGGCCACAGCAGAAGCGUUCACGUCGCGGCCCCCGUCAGAUUCUGGUGAAUCUGCGAAUUCUGCUGUAGAUCUC	1.29
UAACAGGGGGCCACAGCAGAAGCGUUCACGUCGCGGCCCCAGCCAGGUUCUGGUGAAUCUGCGAAUUCUGCUGUAUAUCUC	0.29
UAACAGGGGGCCACAGCAGAAGCGUUCACGUCGCGGCCCCCGCUAGAUUCAGGUGAAUCUGUGAAUUCUGCAGUAUAUCUC	0.17
UAACAGGGGGCCACAGCAGAAGCGUUCACGUCGCGGCCCCCGUCUAAUUCCGGUGAAUCCGCGAAUUCUGCUGUAUAUCUC	0.17
UAACAGGGGGCCACAGCAGAAGCGUUCACGUCGCGGCCCCUGACAGAUUCUGGAGAAUCUGCGAAUUCUGCCGUAUAUCUC	1.35
UAACAGGGGGCCACAGCAGAAGCGUUCACGUCGCGGCCCCUGACAGAUUCUGGUGAAUCCGCGAAUUCUGCUGUAUAUCUC	0.83
UAACAGGGGGCCACAGCAGAAGCGUUCACGUCGCGGCCCCUGUCAGACUCGGGUGAAUCUGCGAAUUCUGCUGUAUAUCUC	0.96
UAACAGGGGGCCACAGCAGAAGCGUUCACGUCGCGGCCCCUGUCAGACUCCGGUGAAUCUGCGAAUUCUGCUGUAUAUCUC	1.06
UAACAGGGGGCCACAGCAGAAGCGUUCACGUCGCGGCCCCAGGCAGAUUCUGGUGAAUCUGCGAAUUCUGCUGUAUAUCUC	0.25
UAACAGGGGGCCACAGCAGAAGCGUUCACGUCGCGGCCCCUGUCAGACUCUGGUGGACCUGCGAAUCCUGCUGUAUAUCUC	0.41
UAACAGGGGGCCACAGCAGAAGCGUUCACGUCGCGGCCCCUGCCAAAUUCUGGUGGAUCUGCGAAUUCUGCUGUAUAUCUC	0.17
UAACAGGGGGCCACAGCAGAAGCGUUCACGUCGCGGCCCCCGUCAGACUCUGGUGAAUCUGCGAAUUCUGCUGUAUAUCUC	1.18
UAACAGGGGGCCACAGCAGAAGCGUUCACGUCGCGGCCCCAGUCAGAUUCUGGUGAAUCUGCGAAUUCUGCAGAAUAUCUC	0.95
UAACAGGGGGCCACAGCAGAAGCGUUCACGUCGCGGCCCCAGUCUGAUUCUGAAGAAUCUGCGAAUUCUGCUGUAUACCUC	0.12
UAACAGGGGGCCACAGCAGAAGCGUUCACGUCGCGGCCCCUGCCAGAUACUGGUGAAUCUGCGAAUUCUGCUGUAUAUCUC	0.82
UAACAGGGGGCCACAGCAGAAGCGUUCACGUCGCGGCCCCUGUCAGAAUCUGGAGAAUCUGCGAAUUCUGCUGUAUAUCUC	1.09
